Read-outs that look alike come from different tables or passages of the source.
B1: anti-hIL-17A-Fc: a Fc-fusion VHH monomer against hIL-17 (protein)
chain: QVQLVQSGGGLVQAGGSLRLSCAASGGTFATSPMGWLRQAPGKGTEFVAAISPSGGDRIYADSVKGRFTISRDNAGYFIYLQMNSLKPEDTAVYYCAVRRRFDGTSYYTGDYDSWGQGTLVTVSS[human IgG1 Fc not written out]
B2: A3: A Fc-fusion humanized VHH monomer of Anti-human TNF-α-VHH (protein)
chain: EVQLLESGGGLVQPGGSLRLSCAASGRTFSTYAMGWFRQAPGKEREFVATVDNDGFTMHADSVKGRFTISRDNSKNTLYLQMNSLRAEDTAVYYCAAGQYSKFVESYAYWGQGTLVTVSS[human IgG1 Fc not written out]
B3: Anti-mTNF-α: a homo-dimer of VHH fused with Fc fragment, specific binding to mouse TNF-α (protein)
chain: QVQLQDSGGGLVQAGGSLRLSCAASGGTFSSIIMAWFRQAPGKEREFVGAVSWSGGTTVYADSVLGRFEISRDSARKSVYLQMNSLKPEDTAVYYCAARPYQKYNWASASYNVWGQGTQVTVSSGGGGSGGGGSGGGGSQVQLQDSGGGLVQAGGSLRLSCAASGGTFSSIIMAWFRQAPGKEREFVGAVSWSGGTTVYADSVLGRFEISRDSARKSVYLQMNSLKPEDTAVYYCAARPYQKYNWASASYNVWGQGTQVTVSS[human IgG1 Fc not written out]

Experiments:
hIL-17A [1] = target: T1, hIL-17A (Homo sapiens, UniProt Q16552); test: IL-17A neutralization, HEK293 reporter cells; format: cell-based; conditions: human IL-17 reporter HEK293 cells
T1 sequence (Q16552 24-155): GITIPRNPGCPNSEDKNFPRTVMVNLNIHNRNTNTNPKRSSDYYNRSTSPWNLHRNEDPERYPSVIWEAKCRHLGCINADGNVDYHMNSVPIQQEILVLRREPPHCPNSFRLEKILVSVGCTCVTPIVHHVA

hIL-17A [2] = target: T1, hIL-17A; test: ELISA binding to hIL-17A
hTNF-α binding to TNFR2 = hTNF-α binding to TNFR2 (Homo sapiens, UniProt P01375); test: Inhibition of hTNF-α binding to TNFR2
hTNF-α binding to TNFR2, sequence (P01375 77-233 limits assumed): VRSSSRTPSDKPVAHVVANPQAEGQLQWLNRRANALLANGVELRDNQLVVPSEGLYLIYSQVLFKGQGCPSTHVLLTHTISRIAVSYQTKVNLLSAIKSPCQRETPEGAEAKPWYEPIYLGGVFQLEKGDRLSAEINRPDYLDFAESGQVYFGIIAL

hTNF-α [3] = target: T2, hTNF-α (Homo sapiens, UniProt P01375); test: Binding kinetics parameters
T2 sequence (P01375 77-233 limits assumed): as above

mouse TNF-α [4] = target: T3, mouse TNF-α (Mus musculus, UniProt P06804); test: Binding to mouse TNF-α
T3 sequence (P06804 80-235 limits assumed): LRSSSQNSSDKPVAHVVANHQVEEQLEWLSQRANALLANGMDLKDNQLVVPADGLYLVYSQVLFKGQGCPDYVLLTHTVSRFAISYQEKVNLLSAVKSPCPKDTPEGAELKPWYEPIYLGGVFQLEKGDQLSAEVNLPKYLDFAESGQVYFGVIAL

hTNF-α [5] = target: T2, hTNF-α; test: ELISA binding to human TNF-α
mouse TNF-α [6] = target: T3, mouse TNF-α; test: Neutralization of mouse TNF-α cytotoxicity on L929 cells; format: cell-based
Experimental: L929 cells (FIG. 3A) were treated with 100 ng/mL of TNF-α alone (FIG. 3B) or together with monovalent anti-TNF-α (FIG. 3C) or bivalent anti-TNF-α VHH-Fc (FIG. 3D) for either 6 h or 24 h. Cell rounding (which may be indicative of apoptosis) was observed under microscope.
We constructed a prototype yeast Sb-amTNF (FZ006m) secreting an anti-mouse TNF-α VHH, which allows us to evaluate the therapeutic potential of the engineered yeast against intestinal inflammatory diseases in conventional mice. […] We therefore engineered the Sb-amTNF strain by inserting VHH/VHH-Fc cassettes into the pTEF or pTDH loci of the auxotrophic Sb strain. Sb-amTNF stably secreted functional anti-mouse TNF-α VHH/VHH-Fc as detected by ELISA and a cell culture assay (FIGS. 3A-3D).

[7] = Anti-drug antibody response after repeated dosing in mice; format: in vivo, mouse; conditions: 8-week period
Experimental: Groups of mice (n=5) were treated with PBS, Sb-amTNF (10^9 CFU/dose), or purified anti-TNF-α VHH/VHH-Fc (10 mg/Kg per injection). Oral Sb-amTNF were three courses of daily treatments, with 36 doses in total. Purified anti-mouse VHH/VHH-Fc fusion polypeptide was ip injected two courses, with 6 doses in total. Fecal and serum samples were collected for ELISA. […] Fecal samples (1:1 w/v in PBS) and serum samples (1000× dilution in PBS) were added to ELISA plates coated with purified anti-TNF VII/VHH-Fc and OD of IgA in fecal and IgG in serum samples were measured.
SbamTNF constitutively expresses a bi-valent VHH fused with human Fe. Experiments were conducted to determine whether long-term, repeated oral dosing Sb-amTNF would induce an anti-antibody response that could potentially reduce drug activity.

Molecule	neutralization of IL-17A bioactivity (hIL-17A [1])	binding to hIL-17 / hIL-17A (hIL-17A [2])	inhibition of hTNF-α binding to TNFR2 (hTNF-α binding to TNFR2)	Ka (hTNF-α [3])	binding to mouse TNF-α (mTNF-α) (mouse TNF-α [4])	specificity / binding to hTNF-α (in words) (hTNF-α [5])	neutralizing activity against mouse TNF-α cytotoxicity (mouse TNF-α [6])	neutralizing activity against mouse TNF-α cytotoxicity (mouse TNF-α [6]; listed as anti-mouse TNF-α VHH/VHH-Fc)	neutralizing activity against mouse TNF-α cytotoxicity (mouse TNF-α [6]; listed as bivalent anti-TNF-α VHH-Fc fusion)	anti-antibody IgG in sera [7]
B1	mediates inhibitions	specifically binds to hIL-17	–	–	–	–	–	–	–	–
B2	–	–	inhibits hTNF-α binding	6.257E+5 1/ms	barely binding to mTNF-α	highly specific to hTNF-α	–	–	–	–
B3	–	–	–	–	specific binding to mouse TNF-α	–	blockade	highest neutralizing activity	significantly more potent	potent anti-antibody IgG responses
